# Laboratory results reported in the supplement of paper PMC8728848.
# This is one part of the list.
# B1: PX9937B-bvu-524-33-524 (Bacteroides vulgatus) (protein)
# chain: GTAYWKNPDQFTAFNTGLHALLREKSYNFFLLGEPRADIYGDNPIGGEASQGMERLPFNTINKENVGISNYGDMYKIINQINQMIAKTTETTILTEATQNYYLGEAYGMRAYLYFHLLRSWGDVVLYLDYTEGQNLDLSNITKGVSPATEVMEQIKKDIQASENAFGSDYSFKLGRHFWSAAATQMLKGEAYLWSGRQMNGGNSDYTIAKNAFENVKKADVGLVTSSFKDIFSFENKKNKEMIFTIHNGKDEYEMWGGYYRMRLIPAQDKMVKIYCDENGNSFVGTPDAQLNGLTQLQVRREFYFKGFRNNDTRWTTSLKAVYKKDAQGVVSYFGPITYKFQGTMLEGGSTRSFLDDFPIYRYADCLLQLAMAKVLLGEDPTEEINAVRERAYGSKYFNEHKAEIAYPNDNDPEFYTDNKWMKPDNAGALEAILKERLREFMFEGKRWYDIRLLGWDYVHQYSSAEQSRLLWPIDAGTLTNNSALKQTPGYE
# Columns and labels:
# Assay in all cases: glycan array binding signal (z-score within array); higher = stronger binding
# Conditions in all cases: glycan notation: IUPAC condensed, linker removed
# [1] = biological target: Man(a1-3)[Man(a1-6)]Man(a1-6)[Man(a1-3)]Man
# How it was run: (§1)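 Glycan array binding is given as a within-array Z-score, which can be read as non-binding when negative. The arrays, 3228 of them, came from the Consortium for Functional Glycomics database and were retained only where the protein sequence was available. Z-scores were averaged across arrays of the same protein sequence at different concentrations or buffers and across linkers.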
# [2] = biological target: Man(a1-3)[Man(a1-6)]Man(a1-6)[Man(a1-3)]Man(b1-4)GlcNAc(b1-4)GlcNAc
# How it was run: as §1
# [3] = biological target: Man(a1-3)[Man(a1-6)]Man(b1-4)GlcNAc(b1-4)GlcNAc
# How it was run: as §1
# [4] = biological target: Man(a1-3)[Man(a1-6)]Man(b1-4)GlcNAc(b1-4)[Fuc(a1-6)]GlcNAc
# How it was run: as §1
# Man(a1-6)Man = biological target: Man(a1-6)Man
# How it was run: as §1
# Man(b1-4)GlcNAc = biological target: Man(b1-4)GlcNAc
# How it was run: as §1
# MurNAc(b1-4)GlcNAc = biological target: MurNAc(b1-4)GlcNAc
# How it was run: as §1
# Neu5Ac(a2-3)Gal = biological target: Neu5Ac(a2-3)Gal
# How it was run: as §1
# [5] = biological target: Neu5Ac(a2-3)Gal(b1-3)GalNAc
# How it was run: as §1
# [6] = biological target: Neu5Ac(a2-3)Gal(b1-3)GalNAc(b1-3)Gal(a1-4)Gal(b1-4)Glc
# How it was run: as §1
# [7] = biological target: Neu5Ac(a2-3)Gal(b1-3)GalNAc(b1-4)[Neu5Ac(a2-3)]Gal(b1-4)Glc
# How it was run: as §1
# [8] = biological target: Neu5Ac(a2-3)Gal(b1-3)GalNAc(b1-4)[Neu5Ac(a2-8)Neu5Ac(a2-3)]Gal(b1-4)Glc
# How it was run: as §1
# [9] = biological target: Neu5Ac(a2-3)Gal(b1-3)GalNAc6S
# How it was run: as §1
# [10] = biological target: Neu5Ac(a2-3)Gal(b1-3)GlcNAc
# How it was run: as §1
# [11] = biological target: Neu5Ac(a2-3)Gal(b1-3)GlcNAc(b1-2)Man
# How it was run: as §1
# [12] = biological target: Neu5Ac(a2-3)Gal(b1-3)GlcNAc(b1-2)Man(a1-3)[GlcNAc(b1-4)][Neu5Ac(a2-3)Gal(b1-3)GlcNAc(b1-2)Man(a1-6)]Man(b1-4)GlcNAc(b1-4)GlcNAc
# How it was run: as §1
# [13] = biological target: Neu5Ac(a2-3)Gal(b1-3)GlcNAc(b1-2)Man(a1-3)[Neu5Ac(a2-3)Gal(b1-3)GlcNAc(b1-2)Man(a1-6)]Man(b1-4)GlcNAc(b1-4)GlcNAc
# How it was run: as §1
# [14] = biological target: Neu5Ac(a2-3)Gal(b1-3)GlcNAc(b1-3)Gal(b1-3)GlcNAc
# How it was run: as §1
# [15] = biological target: Neu5Ac(a2-3)Gal(b1-3)GlcNAc(b1-3)Gal(b1-4)GlcNAc
# How it was run: as §1
# [16] = biological target: Neu5Ac(a2-3)Gal(b1-3)GlcNAc(b1-3)GalNAc
# How it was run: as §1
# [17] = biological target: Neu5Ac(a2-3)Gal(b1-3)GlcNAc(b1-4)Gal(b1-4)Glc
# How it was run: as §1
# [18] = biological target: Neu5Ac(a2-3)Gal(b1-3)GlcNAc(b1-6)GalNAc
# How it was run: as §1
# [19] = biological target: Neu5Ac(a2-3)Gal(b1-3)GlcNAc6S
# How it was run: as §1
# [20] = biological target: Neu5Ac(a2-3)Gal(b1-3)[Fuc(a1-4)]GlcNAc
# How it was run: as §1
# [21] = biological target: Neu5Ac(a2-3)Gal(b1-3)[Fuc(a1-4)]GlcNAc(b1-3)Gal(b1-3)[Fuc(a1-4)]GlcNAc
# How it was run: as §1
# [22] = biological target: Neu5Ac(a2-3)Gal(b1-3)[Fuc(a1-4)]GlcNAc(b1-3)Gal(b1-4)[Fuc(a1-3)]GlcNAc
# How it was run: as §1
# [23] = biological target: Neu5Ac(a2-3)Gal(b1-3)[GlcNAc(b1-6)]GalNAc
# How it was run: as §1
# [24] = biological target: Neu5Ac(a2-3)Gal(b1-3)[Neu5Ac(a2-6)]GalNAc
# How it was run: as §1
# [25] = biological target: Neu5Ac(a2-3)Gal(b1-3)[Neu5Ac(a2-6)]GlcNAc(b1-3)[Fuc(a1-3)[Gal(b1-4)]GlcNAc(b1-6)]Gal(b1-4)Glc
# How it was run: as §1
# [26] = biological target: Neu5Ac(a2-3)Gal(b1-3)]Neu5Ac(a2-3)Gal(b1-4)]GlcNAc
# How it was run: as §1
# Neu5Ac(a2-3)Gal(b1-4)Glc = biological target: Neu5Ac(a2-3)Gal(b1-4)Glc
# How it was run: as §1
# [27] = biological target: Neu5Ac(a2-3)Gal(b1-4)GlcNAc
# How it was run: as §1
# [28] = biological target: Neu5Ac(a2-3)Gal(b1-4)GlcNAc(b1-2)Man
# How it was run: as §1
# [29] = biological target: Neu5Ac(a2-3)Gal(b1-4)GlcNAc(b1-2)Man(a1-3)[GlcNAc(b1-4)][Neu5Ac(a2-3)Gal(b1-4)GlcNAc(b1-2)Man(a1-6)]Man(b1-4)GlcNAc(b1-4)GlcNAc
# How it was run: as §1
# [30] = biological target: Neu5Ac(a2-3)Gal(b1-4)GlcNAc(b1-2)Man(a1-3)[Neu5Ac(a2-3)Gal(b1-4)GlcNAc(b1-2)Man(a1-6)]Man(b1-4)GlcNAc(b1-4)GlcNAc
# How it was run: as §1
# [31] = biological target: Neu5Ac(a2-3)Gal(b1-4)GlcNAc(b1-2)Man(a1-3)[Neu5Ac(a2-3)Gal(b1-4)GlcNAc(b1-2)Man(a1-6)]Man(b1-4)GlcNAc(b1-4)[Fuc(a1-6)]GlcNAc
# How it was run: as §1
# [32] = biological target: Neu5Ac(a2-3)Gal(b1-4)GlcNAc(b1-2)Man(a1-3)[Neu5Ac(a2-6)Gal(b1-4)GlcNAc(b1-2)Man(a1-6)]Man(b1-4)GlcNAc(b1-4)GlcNAc
# How it was run: as §1
# [33] = biological target: Neu5Ac(a2-3)Gal(b1-4)GlcNAc(b1-2)[Neu5Ac(a2-3)Gal(b1-4)GlcNAc(b1-4)]Man(a1-3)[GlcNAc(b1-4)][Neu5Ac(a2-3)Gal(b1-4)GlcNAc(b1-2)[Neu5Ac(a2-3)Gal(b1-4)GlcNAc(b1-6)]Man(a1-6)]Man(b1-4)GlcNAc(b1-4)GlcNAc
# How it was run: as §1
binder,measurement,setting,value
B1,glycan array binding signal (z-score),[1],0.628
same,glycan array binding signal (z-score),[2],-0.366
same,glycan array binding signal (z-score),[3],-0.205
same,glycan array binding signal (z-score),[4],-0.29
same,glycan array binding signal (z-score),Man(a1-6)Man,-0.192
same,glycan array binding signal (z-score),Man(b1-4)GlcNAc,-0.197
same,glycan array binding signal (z-score),MurNAc(b1-4)GlcNAc,-0.246
same,glycan array binding signal (z-score),Neu5Ac(a2-3)Gal,-0.331
same,glycan array binding signal (z-score),[5],-0.35
same,glycan array binding signal (z-score),[6],-0.124
same,glycan array binding signal (z-score),[7],0.323
same,glycan array binding signal (z-score),[8],-0.191
same,glycan array binding signal (z-score),[9],-0.2
same,glycan array binding signal (z-score),[10],-0.319
same,glycan array binding signal (z-score),[11],0.068
same,glycan array binding signal (z-score),[12],-0.481
same,glycan array binding signal (z-score),[13],0.046
same,glycan array binding signal (z-score),[14],-0.23
same,glycan array binding signal (z-score),[15],0.101
same,glycan array binding signal (z-score),[16],-0.281
same,glycan array binding signal (z-score),[17],-0.406
same,glycan array binding signal (z-score),[18],-0.332
same,glycan array binding signal (z-score),[19],-0.104
same,glycan array binding signal (z-score),[20],-0.342
same,glycan array binding signal (z-score),[21],-0.529
same,glycan array binding signal (z-score),[22],-0.189
same,glycan array binding signal (z-score),[23],-0.183
same,glycan array binding signal (z-score),[24],-0.365
same,glycan array binding signal (z-score),[25],-0.421
same,glycan array binding signal (z-score),[26],-0.153
same,glycan array binding signal (z-score),Neu5Ac(a2-3)Gal(b1-4)Glc,0.215
same,glycan array binding signal (z-score),[27],-0.287
same,glycan array binding signal (z-score),[28],0.612
same,glycan array binding signal (z-score),[29],-0.522
same,glycan array binding signal (z-score),[30],0.207
same,glycan array binding signal (z-score),[31],0.395
same,glycan array binding signal (z-score),[32],-0.326
same,glycan array binding signal (z-score),[33],0.169
